To fix the notation:
T1: UNK ZnF1-3 (human, UniProt Q9C0B0 31-174)
T1 sequence: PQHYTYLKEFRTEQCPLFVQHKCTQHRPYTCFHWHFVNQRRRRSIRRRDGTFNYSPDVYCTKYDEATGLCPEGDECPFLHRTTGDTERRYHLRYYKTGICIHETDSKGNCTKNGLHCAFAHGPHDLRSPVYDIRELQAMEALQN

B1: chr1:150549822:150549823:-_ENSG00000143384_ENST00000369026|hu_mus|motif|central (ssRNA)
RNA: GGGAGUUCUACAGUCCGACGAUCUAAAUACACAUGUUUUCACAGAUGCAUGUAGUUUGGUGGCUGGAGCUUUAAGAGUCCCCGGUUGCACUCACAAGGCUAUCUUAUUAGAUAUGCCAGACCAGCCCCUACUCCAGCAACACCCAACAGAGGAUUGAGCAUCA
B2: 37063981_37065326_3669_CDS_ENSMUSG00000040565_ENSMUST00000099494|mouse|control|control (ssRNA)
RNA: GGGAGUUCUACAGUCCGACGAUCUGUUUCCAUGGUAGCUAUUUUACUCAUGACACCUAUGCAACGAGCCGCCAUGUGCCUCACUGCAGUGCUGGGGUACUGAAGGCACAUAUAAAGAUGAGGCAAGUGCUGUACCAGCAAGGGCAACAGAGGAUUGAGCAUCA
B3: chr7:149068622:149068623:-_ENSMUSG00000025139_ENSMUST00000001950|mus_hu|mus_mus_mus_hu_False|1_28 (ssRNA)
RNA: GGGAGUUCUACAGUCCGACGAUCGUGAGGCCUCUGAGUGUGGCUUGUGGUCUGUCCUGGGUUAGAGUUGUUAAUAUCACGGAACAUACCAUCUAGAACGUUCCAGUCUGCCUGACUACCUUCAUUCCCAAUGGAGAAUCUGCUCAACAGAGGAUUGAGCAUCA
B4: chr10:75008345:75008346:-_ENSG00000213551_ENST00000372950|hu_hu|FALSE|FALSE (ssRNA)
RNA: GGGAGUUCUACAGUCCGACGAUCCUAUAUCUUAGUCACACACCAGAGUUAAGCCAUCUGUCUUUGCUCAUUUUUCCCUCUAUGGACAACAUAAUAUGUUGGGAAGGGCUUUCCAGGAGGGCAUAACCGGGAGAUGAAUCUUACCAACAGAGGAUUGAGCAUCA
B5: chr11:86510823:86510824:-_ENSMUSG00000047126_ENSMUST00000103186|mus_hu|FALSE|FALSE (ssRNA)
RNA: GGGAGUUCUACAGUCCGACGAUCAAUGGGUUGUGUCUCUGUAGCUUGUUCUUCUUCUUUUCUCAGUGAUUCUGAAGCAUCUAAUUUAUCCACCUUUGUCAAGUACUCCUUCAUGACCUGGAUGAAAUAGGGCAUGGCAAAAUCCAACAGAGGAUUGAGCAUCA
B6: chrX:12193597:12193598:+_ENSMUSG00000031007_ENSMUST00000033313|mus_hu|FALSE|FALSE (ssRNA)
RNA: GGGAGUUCUACAGUCCGACGAUCAUAUACUCCACAAGGCUAGUUUCUUCUUAGAUCAAUGUAGUAUUUUUAGUAUCCAUAUUAGCCCAUGUAGGUCAACAAACUUGCAGAAGAGGGUUAAAAAACAGCUGUCCUCUGUUACUCCAACAGAGGAUUGAGCAUCA
B7: chr14:57521723:57521724:+_ENSMUSG00000021945_ENSMUST00000022511|mus_mus|motif|central (ssRNA)
RNA: GGGAGUUCUACAGUCCGACGAUCUACAGGUUCAAUAAAAACAACGUCAUCAUCAUCUUCUACUGAUGAGUUCUGAAACUUACGGGAUCUAGACACUAAAGGAUUAGGUGGGCCACUAAAUGAAUUUCCUACGUUCGUGAGACUCAACAGAGGAUUGAGCAUCA
B8: chr3:95733387:95733388:+_ENSMUSG00000015749_ENSMUST00000165307|mus_mus|motif|central (ssRNA)
RNA: GGGAGUUCUACAGUCCGACGAUCCACACGGGUGUGGGAGAGAAAGAAAAGAAUAGCAAAUGGAGUCCGACGACUUGGGACGGACUCGGCUGCCCCCACCUCCGAGUCCACACACCCGCGCGCGCACACUCGGGCACGCACACACAACAGAGGAUUGAGCAUCA
B9: chr8:13935169:13935170:+_ENSMUSG00000038365_ENSMUST00000043520|mus_hu|FALSE|FALSE (ssRNA)
RNA: GGGAGUUCUACAGUCCGACGAUCUGGGUAAUGUUUCUGAAGUGCAAAGUACAUCAACUUCCAUUCAAUAUGACCUUUUUCUGAAAGGAUCAAAUGUCUACAAAACUGCUUUUCAGCAAAAUGGUACUGACAAAGCUUCUUCCACAACAGAGGAUUGAGCAUCA
B10: chr8:95500983:95500984:-_ENSG00000164944_ENST00000437199|hu_hu|hu_hu_hu_mus_True|8_18 (ssRNA)
RNA: GGGAGUUCUACAGUCCGACGAUCAGAACACAUCUAUCGAGUAAAGGACCGUACAUGACGGCCUCUACCACUGCCUCCACUAACAAACUUUCCUCUCGAGCCUCCACUGCCGCUAUUUUGCACUAGCCCAGGAAGGUCCAGGCCCAACAGAGGAUUGAGCAUCA
B11: chr19:54062153:54062154:+_ENSMUSG00000024976_ENSMUST00000025932|mus_mus|motif|central (ssRNA)
RNA: GGGAGUUCUACAGUCCGACGAUCUUGGCAGACGGUACUUUGGGGUCUUUCUCUUUAGAGUCUUUUUCUUUUCCUAAACGGCGGCUCAUGGUGACUCAAGCUUCACUCAAACACUACAUGAACUCCUCCUCCUCGCCAGCAAUCCAACAGAGGAUUGAGCAUCA
B12: chr3:148802587:148802588:-_ENSG00000071794_ENST00000310053|hu_mus|hu_hu_hu_mus_False|28_78 (ssRNA)
RNA: GGGAGUUCUACAGUCCGACGAUCUCCAACAACUUGUCCUCUCAUAGUUCCAAAUAAAACGGAAUCUUGCUCUUCAUCACUCGUUAGGAAGUCAUCUGGAGGAAUAACAUCUUGGAAUUCAAAAUGUGGCAAGAAAGUUGAGUACAACAGAGGAUUGAGCAUCA
B13: 14087887_14088007_2097_3pUTR_ENSG00000147862_ENST00000380959|human|control|control (ssRNA)
RNA: GGGAGUUCUACAGUCCGACGAUCAGAAAGUCAGUUAAAAUAUAUUGUCAUAGAGACAGAACAUCUAUUUCCCAGCGGACUUCAUGUAACAAAGGCUACGUUGCAGGGGCUGCGAUCUACCAUCAGUGAAAUAUCAUCGACCCUCAACAGAGGAUUGAGCAUCA
B14: chr12:42180722:42180723:-_ENSMUSG00000036295_ENSMUST00000043884|mus_mus|motif|central (ssRNA)
RNA: GGGAGUUCUACAGUCCGACGAUCCUGUAGGAGCAGAAUCUGUGUGUCGGCAGGCAAUCUGGCUGGGAAGUUUAAAAGCCCGGAAUCAUUACAGUCCACUGUCGAUGCUUCCAUAUAGAUGGAUCUCGGGGUAAACCAAGGCCUCAACAGAGGAUUGAGCAUCA
B15: chr11:85008163:85008164:-_ENSMUSG00000018481_ENSMUST00000018625|mus_hu|FALSE|FALSE (ssRNA)
RNA: GGGAGUUCUACAGUCCGACGAUCAGCAUUUUCAUACUGAUUCAUGUCAUAAUUAUAUAAAGAAGCCAGAUGUCCCACUGAAAGGGCUACUUCAUAAUCUUCUUGACCAAGAAGUUGUUCUUUAAUCUGAAUUGCUUUGAUGUGCAACAGAGGAUUGAGCAUCA
B16: chr1:109605286:109605287:-_ENSG00000197780_ENST00000461096|hu_mus|hu_hu_hu_mus_True|38_98 (ssRNA)
RNA: GGGAGUUCUACAGUCCGACGAUCAAGUUUCAGAGUAUUCAGUGAUCACCUCUUUAAAUGCAAUUAUCCUUAUUAUAAGCUAAGCAGAAUAAUAAUUUAAUACAUAGAGUGAACUACACACAAAGCCUGAACCGCGAAAAUGGUCAACAGAGGAUUGAGCAUCA
B17: chr20:57486015:57486016:+_ENSG00000087460_ENST00000306090|hu_hu|motif|central (ssRNA)
RNA: GGGAGUUCUACAGUCCGACGAUCGUGGCCUUUUUUCCUUUUUCUGUAGGCCGCCUUAAGCUUUCUAAAUUUGGAACAUCGGAGCAAGCUGAAGGGAAAAGGGGGUUUCGCAAAAUCACUCGGGGGAAGGGAAAGGUUGCUUUGCAACAGAGGAUUGAGCAUCA
B18: 90162169_90162289_1694_CDS_ENSMUSG00000044783_ENSMUST00000054674|mouse|control|control (ssRNA)
RNA: GGGAGUUCUACAGUCCGACGAUCCCACACUGCCUUACCAGUAGGUUCAGAAUUGUGCUCUUGAAGGCCAGAGCUCAGCUGAGAAUGGCUGGGGCUCCGUGACGGGCUGCCCUCUGGAGAGGGACAGCUCCUUAGAAGACAGCUCAACAGAGGAUUGAGCAUCA
B19: chrX:71549400:71549401:+_ENSMUSG00000019087_ENSMUST00000019231|mus_hu|mus_mus_mus_hu_False|1_78 (ssRNA)
RNA: GGGAGUUCUACAGUCCGACGAUCGCAGUAGGAAGAGGGAAGCUCUUCAGUCCAGUGGUCACAAAACUGGGAAAGCAACAACACGGACACCGUCCCACCCUCAACCCCCCCACUGGCACAGGGUCACACAAUCUGGGAAGUGAUCAACAGAGGAUUGAGCAUCA
B20: chrX:71549400:71549401:+_ENSMUSG00000019087_ENSMUST00000019231|mus_hu|mus_mus_mus_hu_False|38_108 (ssRNA)
RNA: GGGAGUUCUACAGUCCGACGAUCGCAAGGAAGAGGAGGAAGCUCUUCAGUCCAGUGCGCUGCAGGGUGGGAAAGCAACAACACGGACACCGUCCCACCUCAAUUCCCCCCACUGGCACAGGGUCACACAAUCUGGGUCAAAGACAACAGAGGAUUGAGCAUCA
B21: chr14:103803487:103803488:+_ENSG00000100664_ENST00000558506|hu_mus|hu_hu_hu_mus_True|8_28 (ssRNA)
RNA: GGGAGUUCUACAGUCCGACGAUCGAGUUUAUGAUGUGUGUCAAGCAUGCCUCGGUACCCACAGGCUUUACAAGAAUUACCUAUUGUUUGCUUCUUUGGAUUGACAUGCAAAUCUGUUUCAGGAUUCUCACAUUCAGGACAGAGCAACAGAGGAUUGAGCAUCA
B22: 11916292_11920806_271_3pUTR_ENSMUSG00000022205_ENSMUST00000022816|mouse|control|control (ssRNA)
RNA: GGGAGUUCUACAGUCCGACGAUCAACACUGACAUAUCUCAUCUUUCCAAUCUGGAACAUGUUGUCAUCUCUGCUGCUGCUGCUCUGCUUGGAGGAUGCCAGUGCUCUAGAAGUCUCACCAGGCUUCUGCUUCUUCACGGGCUUCAACAGAGGAUUGAGCAUCA

Some of the results follow.

We go through 22 molecules from PMC12136788.

This experiment has as its target T1, UNK ZnF1-3. The experiment can be described thus: nsRBNS (natural sequence RNA bind-n-seq); RBNS binding buffer (assumed for nsRBNS): 25 mM Tris pH 7.5, 150 mM KCl, 3 mM MgCl2, 0.01% Triton X-100, 500 ug/ml BSA, 20 U/ml SUPERase-In, 4 C; UNK is unkempt and MSI1 is Musashi-1; names of the RNAs are library labels; protein concentration not given here; high values mean tight binding.
Consider B1, for which the binding signal was 0.626 enrichment R. Then B2, with 1.02 enrichment R; and B3, with 0.684 enrichment R; and B4, with 1.63 enrichment R. B5 gave a binding signal of 0.718 enrichment R.

Consider B6, for which the binding signal was 0.956 enrichment R. Then B7, with 1.02 enrichment R; and B8, with 0.788 enrichment R; and B9, with 0.661 enrichment R.

B10 displayed a binding signal of 1.13 enrichment R. For B11, the binding signal is 0.76 enrichment R.

B12: the binding signal came out at 1.7 enrichment R.

As for B13, the binding signal is 0.766 enrichment R. Then B14, with 1.19 enrichment R. Then B15, with 1.68 enrichment R; and B16, with 0.904 enrichment R; and B17, with 1.55 enrichment R. Then B18, with 0.899 enrichment R; and B19, with 1.47 enrichment R. B20 had a binding signal of 1.44 enrichment R. B21: the binding signal stood at 1.33 enrichment R. Then B22, with 0.575 enrichment R.
